{"source": "PubChem BioAssay AID485294", "about": "(National Center for Advancing Translational Sciences (NCATS), 2010)", "note": "Out of some 370,000 compounds screened, about 150 (0.041%) were called active. The shares of active, inactive and inconclusive entries below differ from those in the screen. The call rests on the fitted dose curve; in most records, active means well fitted inhibition curve with a large enough effect; inconclusive means small, poorly fitted or top-dose-only effect; inactive means flat fitted curve, though single readings scatter. Potencies of inconclusive entries are left out as doubtful fits. Potency means the concentration at half of the fitted maximal effect; tags describe the fitted curve by direction and shape."}
{"target": "Beta-lactamase (Escherichia coli (strain K12)) (UniProt P00811)", "sequence (P00811 whole entry, looked up)": "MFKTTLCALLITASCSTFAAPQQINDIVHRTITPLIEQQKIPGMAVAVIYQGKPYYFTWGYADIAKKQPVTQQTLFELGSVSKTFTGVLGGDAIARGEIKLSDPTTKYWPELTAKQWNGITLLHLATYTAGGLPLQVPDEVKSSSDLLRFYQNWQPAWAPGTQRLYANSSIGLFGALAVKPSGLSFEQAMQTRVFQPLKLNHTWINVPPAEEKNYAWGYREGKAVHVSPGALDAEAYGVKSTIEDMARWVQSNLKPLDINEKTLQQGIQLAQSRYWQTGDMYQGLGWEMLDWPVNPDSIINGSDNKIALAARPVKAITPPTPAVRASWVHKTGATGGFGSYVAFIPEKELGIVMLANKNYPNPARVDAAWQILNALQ", "test": "qHTS Inhibitors of AmpC Beta-Lactamase (assay with detergent); further: nearly all actives have a fitted effect of over 25% in size", "conditions": "AmpC hydrolysis of nitrocefin, absorbance 480 nm, 0.01% Triton; series mostly up to 114 µM", "summary_of_the_method": "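AmpC (5.3 nM in the dispensed reagent) in 20 mM phosphate pH 7.0 with 0.01% (detergent screen) or 0.0001% Triton X-100 was preincubated with compounds for 15 min at room temperature. Nitrocefin was then added from an 800 uM solution, and hydrolysis was followed at 480 nm.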"}
{"molecule": "N#Cc1c(NC(=S)NC(=O)C2CCCC2)sc2c1CCCCC2", "Potency": "inactive"}
{"molecule": "COc1ccccc1COC(=O)CN1C(=O)NC2(CCCCC2C)C1=O", "note": "(configuration not stated)", "Potency": "inconclusive [inhibitor, partial curve, poor fit]"}
{"molecule": "CCOc1cc(-c2noc(CCC(=O)NC3CCCCC3)n2)ccc1OC", "Potency": "inconclusive [inhibitor, partial curve, poor fit]"}
{"molecule": "Cc1ccc(CS(=O)(=O)CCC(=O)NCCC(C)C)cc1", "Potency": "inconclusive [inhibitor, partial curve]"}
{"molecule": "CCc1nn(CC(=O)Nc2cc(C)ccc2C)c(=N)s1", "Potency": "inconclusive [inhibitor, full curve, poor fit]"}
{"molecule": "Cc1c(CN2CCCCC2C)c(=O)n(-c2ccccc2)n1C", "note": "(configuration not stated)", "Potency": "inconclusive [inhibitor, full curve, poor fit]"}
{"molecule": "Nc1ccccc1NC(=O)c1ccccc1", "Potency": "inconclusive [inhibitor, partial curve, poor fit]"}
{"molecule": "COc1cc(/C=C/C(=O)OCC(=O)NC(=O)NC(C)(C)C)cc(OC)c1OC", "Potency": "inconclusive [inhibitor, full curve, poor fit]"}
{"molecule": "Cc1cc(C)cc(C(=O)NCCn2cc(SCC(=O)N3CCOCC3)c3ccccc32)c1", "Potency": "inconclusive [inhibitor, full curve]"}
{"molecule": "Cc1nc2c(ccc3nc(NC(=O)C(c4ccccc4)c4ccccc4)sc32)s1", "Potency": "inconclusive [inhibitor, full curve, poor fit]"}
{"molecule": "O=C(N/N=C/c1ccccc1)C(=O)N/N=C/c1ccccc1", "Potency": "inactive"}
{"molecule": "Cc1ccc(-c2nnc(SCC(=O)Nc3ccc(S(=O)(=O)N4CCCCCC4)cc3)o2)cc1", "Potency": "inconclusive [inhibitor, partial curve, poor fit]"}
{"molecule": "COc1ccccc1CNC(=O)c1nnn(CC(=O)Nc2c(C)cccc2C)c1N", "Potency": "inactive"}
{"molecule": "Cn1c(C(=O)Nc2ccc(OC(F)(F)F)cc2)cc2c(=O)n3ccccc3nc21", "Potency": "inactive"}
{"molecule": "COc1ccccc1N1CCN(CC(=O)N2N=CCC2c2ccccc2)CC1", "note": "(configuration not stated)", "Potency": "inconclusive [inhibitor, partial curve, poor fit]"}
{"molecule": "CC(=O)N(C)c1ccc(NC(=S)Nc2cccc3ccccc23)cc1", "Potency": "inconclusive [inhibitor, single point]"}
{"molecule": "COc1ccccc1N1CCN(C2CCCN(C(=O)CCC(C)=O)C2)CC1", "note": "(configuration not stated)", "Potency": "inconclusive [inhibitor, full curve, poor fit]"}
{"molecule": "Cc1ccccc1NC1=C(Cl)C(=O)OC1OC(=O)c1ccco1", "note": "(configuration not stated)", "Potency": "inconclusive [inhibitor, full curve, poor fit]"}
{"molecule": "Cc1cccc(C)c1NC(=O)CNC(=O)c1ccc(COc2ccccc2)cc1", "Potency": "inactive"}
{"molecule": "CCc1cccc(NC(=O)c2ccc3c(c2)c(C)c(C)n3Cc2ccc(F)cc2)c1", "Potency": "inactive"}
{"molecule": "O=C(CNC(=O)OCc1ccccc1)NC1CCCCCCC1", "Potency": "inactive"}
{"molecule": "Cn1c(=O)c2c(SCC(=O)N3CCCC3)nc(CC(C)(C)C)nc2n(C)c1=O", "Potency": "inactive"}
{"molecule": "COc1cccc(C2CCCN2Cc2nc(CCC(C)C)no2)c1", "note": "(configuration not stated)", "Potency": "inconclusive [inhibitor, full curve]"}
{"molecule": "Cc1ccc(-c2cn(-c3ccccc3)c(SCC(N)=O)n2)cc1C", "Potency": "inconclusive [inhibitor, full curve, poor fit]"}
{"molecule": "Cc1nn(C)cc1CNC(=O)c1cnn2c(C(F)F)cc(C3CC3)nc12", "Potency": "inconclusive [inhibitor, single point]"}
{"molecule": "C/C=C1/C[N+]2(C)CCC34C(=C(C=O)[C@H]1C[C@@H]32)Nc1ccccc14", "note": "(some centres not stated)", "Potency": "inconclusive [inhibitor, full curve]"}
{"molecule": "CC(=O)c1cccc(NC(=O)CN2C(=O)C(=O)N(Cc3ccco3)C2=O)c1", "Potency": "inconclusive [inhibitor, full curve, poor fit]"}
{"molecule": "O=C(CSc1ccccn1)N/N=C/c1cccc([N+](=O)[O-])c1", "Potency": "inconclusive [inhibitor, full curve, poor fit]"}
{"molecule": "COc1cccc(NC(=O)Cn2c(=O)n(-c3ccccc3)c(=O)c3c2c2cc(OC)ccc2n3C)c1", "Potency": "inconclusive [inhibitor, single point]"}
{"molecule": "CC(=O)c1ccc(NC(=O)CN2C(=O)COc3ccc(Cl)cc32)cc1", "Potency": "inconclusive [inhibitor, full curve, poor fit]"}
{"molecule": "CC(C)n1c(SCC(=O)c2ccc3c(c2)OCCO3)nc2c1c(=O)n(C)c(=O)n2C", "Potency": "inactive"}
{"molecule": "CCCCNC(=O)c1cccc(S(=O)(=O)N2CC3(C)CC2CC(C)(C)C3)c1", "note": "(configuration not stated)", "Potency": "inconclusive [inhibitor, full curve, poor fit]"}
{"molecule": "CCCN(CCC)c1ccc(CC(=O)NC(C)Cc2ccccc2)cc1", "note": "(configuration not stated)", "Potency": "inconclusive [inhibitor, single point]"}
{"molecule": "COc1cccc(C(=O)Nc2ccc(N3CCN(S(C)(=O)=O)CC3)cc2)c1", "Potency": "inactive"}
{"molecule": "Cc1ccc(NS(=O)(=O)c2cccc3cccnc23)cc1Cl", "Potency": "inconclusive [inhibitor, full curve, poor fit]"}
{"molecule": "COc1cccc(NC(=O)CN(C)C(=O)CCNC(=O)c2ccc(Br)cc2)c1", "Potency": "inconclusive [inhibitor, partial curve, poor fit]"}
{"molecule": "CC1=NN(c2ccc(Cl)cc2)C(=O)C1", "Potency": "inactive"}
{"molecule": "COc1ccc(S(=O)(=O)N(CC(=O)Nc2ccc3c(c2)OCO3)c2ccccc2OC)cc1", "Potency": "inconclusive [inhibitor, full curve, poor fit]"}
{"molecule": "Cc1ccccc1CSCC(=O)Nc1ccccc1F", "Potency": "inconclusive [inhibitor, full curve, poor fit]"}
{"molecule": "COc1ccc(-n2c(=O)c3ccc(C(=O)NCc4ccc(C)cc4)cc3n(Cc3ccc(Cl)cc3)c2=O)cc1", "Potency": "inactive"}
{"molecule": "COc1ccc(C(CC(=O)O)NC(=O)COc2ccccc2OC)cc1OC", "note": "(configuration not stated)", "Potency": "inconclusive [inhibitor, full curve, poor fit]"}
{"molecule": "CCOc1ccc(-n2nc3c(=S)[nH]nc(C)c3c2C)cc1", "Potency": "inconclusive [inhibitor, partial curve]"}
